From the supplement of paper PMC9334596
Where “and” joins values, the source holds several entries; their conditions need not be identical. Equal entries are not always repeated. Over roughly 5,300 compounds, “PER2::LUC luminescence relative to vehicle control” has its median near 0.96; the highest 2% begin near 1.3. The list shows a part of the results.

System: mPer2Luc MEF
Assay: PER2::LUC luminescence relative to vehicle control (fold of vehicle); higher = higher PER2::LUC reporter signal
Conditions: 10 µM
In short: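 Mouse embryonic fibroblasts carrying the mPer2Luc reporter were seeded at ~3000 cells per well in 384-well plates, 48 h before compounds from commercial libraries were added at 10 μM. Cells were grown in DMEM with 10% FBS at 37 °C and 5% CO2. Luminescence was read with the ONE-Glo luciferase assay system 24 h and 30 h after treatment, followed by an alamarBlue viability assay. The value is PER2::LUC luminescence as fold of vehicle control.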

Row | Compound | PER2::LUC luminescence (time after treatment 24 h) | PER2::LUC luminescence (time after treatment 30 h)
1 | CCO[C@@H]1OC(=O)C[C@@H]1NC(=O)[C@@H]1CCCN1C(=O)[C@@H](NC(=O)c1ccc(N)c(Cl)c1)C(C)(C)C | 1.07 | 1.1
2 | Oc1c(I)cc(I)c2cccnc12 | 0.941 | 0.965
3 | C[C@@]1(F)[C@H](O)[C@@H](CO)O[C@H]1n1ccc(N)nc1=O | 1.1 | 1.1
4 | CN(C)c1ccc(C(=O)NCCCCCCC(=O)NO)cc1 | 0.893 | 0.924
5 | CC(=O)O[C@H]1CC[C@@]2(C)[C@H](CC[C@@H]3[C@@H]2CC[C@]2(C)[C@@H]4[C@H](C[C@@H]32)O[C@]2(CC[C@@H](C)CO2)[C@H]4C)C1 | 0.986 | 0.936
6 | C#CCN(C)Cc1ccccc1 | 0.93 and 0.871 | 0.955 and 0.95
7 | O=c1[nH]c2ccccc2c2ccccc12 | 1.19 | 0.972
8 | COc1ccc(-c2oc3c(CC=C(C)C)c(O[C@@H]4O[C@H](CO)[C@@H](O)[C@H](O)[C@H]4O)cc(O)c3c(=O)c2O[C@@H]2O[C@@H](C)[C@H](O)[C@@H](O)[C@H]2O)cc1 | 1.05 | 1.1
9 | C[C@H]1[C@@H](O)O[C@@H]2O[C@@]3(C)CC[C@H]4[C@H](C)CC[C@@H]1[C@@]24OO3 | 0.615 | 0.646
10 | O=C(O)/C=C/c1c[nH]c2ccccc12 | 1.01 | 1.02
11 | CCn1cc(C(=O)O)c(=O)c2ccc(C)nc21 | 0.874 | 0.809
12 | COc1ccc2cc(CCC(C)=O)ccc2c1 | 1.75 | 1.7
13 | O=C(O)CCC(=O)OC[C@@H](NC(=O)C(Cl)Cl)[C@H](O)c1ccc([N+](=O)[O-])cc1 | 0.955 | 0.963
14 | Cc1cccc(/C=C/c2ccccc2)n1 | 1.35 | 1.16
15 | CCCCCC(C)N (stereo unspecified) | 1.02 and 0.857 | 1.04 and 0.798
16 | CCN(Cc1ccncc1)C(=O)C(CO)c1ccccc1 (stereo unspecified) | 1.04 | 1.05
17 | Cc1nc(Nc2ccc(F)cc2)nc(N2CCc3ccccc3C2C)c1C (stereo unspecified) | 0.906 | 0.868
18 | O=C(NCCNCC(O)COc1ccc(O)cc1)N1CCOCC1 (stereo unspecified) | 0.988 | 0.94
19 | N=C(N)c1ccccc1 | 1.03 | 0.98
20 | CC(=O)O/N=C1\C(=O)N(Cc2cc(Cl)ccc2Cl)c2ccc(Cl)cc21 | 1.08 | 1.08
21 | Cc1ncc([N+](=O)[O-])n1CCO | 1.26 | 0.959

Row | Compound | PER2::LUC luminescence (time after treatment 24 h) | PER2::LUC luminescence (time after treatment 30 h)
22 | CCN(CC)CC#CCOC(=O)C(O)(c1ccccc1)C1CCCCC1 (stereo unspecified) | 1.02 and 0.831 | 0.799 and 0.895
23 | OC(CCN1CCCCC1)(c1ccccc1)C1CC2C=CC1C2 (stereo unspecified) | 0.9 and 0.774 and 0.685 | 0.906 and 0.687 and 0.665
24 | CC(C)CCC[C@@H](C)[C@H]1CC[C@H]2[C@@H]3CC=C4CC(=O)CC[C@]4(C)[C@H]3CC[C@]12C | 1.42 | 1.09
25 | CN1C2CCCC1CC(NC(=O)c1nn(C)c3ccccc13)C2 (stereo unspecified) | 0.865 | 0.969
26 | CC(C)N1CCN(c2ccc(OCC3COC(Cn4cncn4)(c4ccc(Cl)cc4Cl)O3)cc2)CC1 (stereo unspecified) | 0.8 | 0.809
27 | O=C(N/N=C/c1ccc(O)c(O)c1)c1cc2ccccc2cc1O | 0.794 | 1.04
28 | COc1ccc(SC(=O)N[C@@H](CCC(=O)O)C(=O)O)cc1 | 0.852 | 0.909
29 | N=C(N)SCc1ccc(CSC(=N)N)s1 | 1.01 and 0.976 | 1.01 and 0.977
30 | C=CC[C@@H]1/C=C(\C)C[C@H](C)C[C@H](OC)[C@H]2O[C@@](O)(C(=O)C(=O)N3CCCC[C@H]3C(=O)O[C@H](/C(C)=C/[C@@H]3CC[C@@H](O)[C@H](OC)C3)[C@H](C)[C@@H](O)CC1=O)[C@H](C)C[C@@H]2OC | 0.918 | 1.03
31 | CC(=O)OC1CCC23CC1(C)CCC2C(C)(C)CC3OC(C)=O (stereo unspecified) | 0.96 | 0.934
32 | COc1ccc2[nH]cc(CCNC(C)=O)c2c1 | 1.03 and 0.466 | 1.03 and 0.798
33 | CC(C)(C)[Si](C)(C)Oc1ccc2oc(=O)c3c(c2c1)CCCN3 | 1.14 | 1.15
34 | CCCCC/C=C\C[C@@H](O)/C=C/c1cccc(C[C@@H](O)CCCCO)n1 | 1.07 | 0.841
35 | NC[C@H]1O[C@H](O[C@H]2[C@H](O[C@@H]3O[C@H](CO)[C@@H](O)[C@H]3O)[C@@H](O)[C@H](N)C[C@@H]2N)[C@H](N)[C@@H](O)[C@@H]1O | 0.887 | 0.894
36 | O=Nc1c(-c2c(O)[nH]c3ccccc23)[nH]c2ccccc12 | 1.72 | 2.02
37 | COCc1c(C(C)C)nc(C(C)C)c(/C=C/[C@@H](O)C[C@@H](O)CC(=O)O)c1-c1ccc(F)cc1 | 0.305 | 0.274
38 | Oc1nc2cc(Cl)c(Cl)cc2nc1O | 0.684 | 0.69
39 | COc1ccc(C(=O)NCc2cccnc2)cc1C(=O)NCc1cccnc1 | 0.916 | 0.901
40 | Cc1cc([N+](=O)[O-])ccc1NS(=O)(=O)c1cc(Cl)ccc1Cl | 0.955 and 0.797 | 0.774 and 0.762
41 | CC(C)c1cccc(C(C)C)c1N1C(=O)c2ccc(O)cc2C1=O | 1.11 | 1.08
42 | CC1(C)CCC[C@](C)([C@H]2CC[C@]3(C)[C@@H]2[C@H](O)C[C@@H]2[C@@]4(C)CC[C@H](O)C(C)(C)[C@@H]4CC[C@]23C)O1 | 1.02 | 1.02

Row | Compound | PER2::LUC luminescence (time after treatment 24 h) | PER2::LUC luminescence (time after treatment 30 h)
43 | Nc1nc(=O)c2nc(CNc3ccc(C(=O)N[C@@H](CCC(=O)O)C(=O)O)cc3)cnc2[nH]1 | 0.904 | 0.734
44 | CC(=O)N[C@@H](CC(C)C)C(=O)O | 1.07 | 0.958
45 | O=C([O-])[C@H]1/C(=C/CO)O[C@@H]2CC(=O)N21.[Li+] | 1 | 0.949
46 | CC(C)(C)Sc1c(CC(C)(C)C(=O)O)n(Cc2ccc(Cl)cc2)c2ccc(OCc3ccc4ccccc4n3)cc12 | 1 | 0.992
47 | OCc1cc2c(cn1)[nH]c1ccccc12 | 0.851 | 0.873
48 | O=C(NCCS(=O)(=O)c1ccc(C(F)(F)F)cn1)c1ccc(Cl)cc1 | 1.04 | 1.06
49 | C=C1CC[C@H](O)C/C1=C/C=C1\CCC[C@]2(C)[C@@H]([C@H](C)CCCC(C)(C)O)CC[C@@H]12 | 0.892 and 0.798 | 0.882 and 0.845
50 | CC(C)CC(=O)Nc1n[nH]c2c1CN(C(=O)C1CCN(C)CC1)C2(C)C | 0.748 | 0.593
51 | COc1c2ccoc2nc2c(OC)c(OCC(O)C(C)(C)O)ccc12 (stereo unspecified) | 1.1 | 1.05
52 | CN1CCc2cc3c(cc2C(=O)Cc2ccc4c(c2C1)OCO4)OCO3 | 1.01 | 0.95
53 | CC(=O)N1c2ccc(-c3ccc(C(=O)O)cc3)cc2[C@H](Nc2ccc(Cl)cc2)C[C@@H]1C | 0.113 | 0.084
54 | Oc1ccccc1NCc1ccccn1 | 0.921 | 1.05
55 | CC[C@H]1OC(=O)[C@H](C)[C@@H](O[C@H]2C[C@@](C)(OC)[C@@H](O)[C@H](C)O2)[C@H](C)[C@@H](O[C@@H]2O[C@H](C)C[C@H](N(C)C)[C@H]2O)[C@](C)(O)C[C@@H](C)/C(=N\OCOCCOC)[C@H](C)[C@@H](O)[C@]1(C)O | 0.667 | 1.01
56 | CCc1cccc(N(C)C(=N)Nc2cccc3ccccc23)c1 | 0.746 | 0.808
57 | Nc1nc(F)nc2c1ncn2[C@@H]1O[C@H](CO)[C@@H](O)[C@@H]1O | 0.688 | 0.502
58 | CC1(C)CCC[C@](C)([C@H]2CC[C@]3(C)[C@@H]2[C@H](O)C[C@@H]2[C@@]4(C)CC[C@H](O)C(C)(C)[C@@H]4[C@@H](O)C[C@]23C)O1 | 0.965 | 0.95
59 | CSc1ccccc1NC(C)=O | 0.972 | 0.93
60 | O=C1CN2Cc3c(ccc(Cl)c3Cl)N=C2N1 | 1.2 | 1.17
61 | COc1ccc(C2=N[C@@H](c3ccc(Cl)cc3)[C@@H](c3ccc(Cl)cc3)N2C(=O)N2CCNC(=O)C2)c(OC(C)C)c1 (racemic) | 0.971 and 1.06 and 0.903 | 0.948 and 0.818 and 0.649
62 | CC(N)(C(=O)O)c1ccc(C(=O)O)cc1 (racemic) | 0.971 | 0.694
63 | CC(C)NCC(O)COc1ccc(COCCOC(C)C)cc1 (stereo unspecified) | 1.04 and 0.945 | 1.04 and 1.01

Row | Compound | PER2::LUC luminescence (time after treatment 24 h) | PER2::LUC luminescence (time after treatment 30 h)
64 | CN(C)Cc1c(C(=O)NCCOc2ccc(C(=O)NO)cc2)oc2ccccc12 | 0.288 | 0.586
65 | COc1ccc(-c2cc(=O)c3c(O)cc(O)cc3o2)cc1O | 0.933 | 1.03
66 | COc1cc(S(=O)(=O)O)ccc1O | 1.1 | 0.889
67 | CC(=O)OC[C@@]1(O)C[C@@]23CC[C@@H]4c5ccoc5CC[C@@]4(C)[C@@H]2CC[C@@H]1C3 | 1.05 | 1.06
68 | CN1CC[C@H](c2c(O)cc(O)c3c(=O)cc(-c4ccccc4Cl)oc23)[C@H](O)C1 | 0.967 | 0.942
69 | CC(N)=O | 1.03 | 1.1
70 | COc1cc2c(cc1CC=C(C)C)C(=O)C[C@@H](c1ccc(O)cc1)O2 | 0.899 | 0.955
71 | Nc1nc(Cl)nc2c1ncn2[C@@H]1O[C@H](CO)[C@@H](O)[C@@H]1F | 0.453 | 0.367
72 | COc1cc2ccc(=O)oc2c(OC)c1OC | 0.926 | 0.926
73 | C[C@@H](N)[C@H]1CC[C@H](C(=O)Nc2ccncc2)CC1 | 1.04 and 1.16 | 1.04 and 1.27
74 | c1cnc2cc3c(cc2n1)[C@@H]1CNC[C@H]3C1 | 0.967 | 1.01
75 | NC[C@H]1O[C@@H](n2cnc3c(N)ncnc32)[C@H](O)[C@@H]1O | 0.981 | 0.975
76 | CCCCCN(CCCOC)C(=O)C(CCC(=O)O)NC(=O)c1ccc(Cl)c(Cl)c1 (stereo unspecified) | 1.01 | 0.935
77 | COC(=O)CC1CC(c2ccc(O)cc2)=NO1 (stereo unspecified) | 1.51 | 1.75
78 | CC(=O)NN(Cc1ccc(N)cc1)c1ncnc2c1ncn2[C@@H]1O[C@H](CO)[C@@H](O)[C@H]1O | 1.03 | 0.913
79 | Cc1ccccc1N=C(N)Nc1ccccc1C | 1.04 | 0.961
80 | CC(=O)OCC(COC(C)=O)OC(C)=O | 0.917 | 1.16
81 | O=c1cc(-c2ccc(O)cc2)oc2cc(O)cc(O)c12 | 0.595 | 0.545
82 | CO[C@H]1/C=C/O[C@@]2(C)Oc3c(C)c(O)c4c(c3C2=O)C2=NC3(CCN(CC(C)C)CC3)NC2=C(NC(=O)/C(C)=C\C=C\[C@H](C)[C@H](O)[C@@H](C)[C@@H](O)[C@@H](C)[C@H](OC(C)=O)[C@@H]1C)C4=O | 0.55 | 0.643
83 | CCOc1cccc(C(=O)c2ccc(O)c(O)c2O)c1 | 1.23 | 1.37
